Where a chain is given by its changes, count along the chain named. Names and notes keep the numbering of the source. These are yes or no findings as the source states them, for the method shown. For some assays here: In cells and extracts the contact can be indirect. Some results given as binding are weak or reduced against the parent protein; the word gives no strength. Tags and fused reporters may be left off the sequences shown. Each block holds one binder with its values, some of them ahead of it.
Experiments:
Red1-Myc13 (S. pombe) = target: T1, Red1-Myc13 (S. pombe) (UniProt Q9UTR8); assay: co-IP; soluble extracts of S. pombe co-expressing Red1-Myc13 and Red1-HA3 forms; anti-Myc 9E10 and Protein-G Dynabeads; western blot with anti-HA
T1 sequence: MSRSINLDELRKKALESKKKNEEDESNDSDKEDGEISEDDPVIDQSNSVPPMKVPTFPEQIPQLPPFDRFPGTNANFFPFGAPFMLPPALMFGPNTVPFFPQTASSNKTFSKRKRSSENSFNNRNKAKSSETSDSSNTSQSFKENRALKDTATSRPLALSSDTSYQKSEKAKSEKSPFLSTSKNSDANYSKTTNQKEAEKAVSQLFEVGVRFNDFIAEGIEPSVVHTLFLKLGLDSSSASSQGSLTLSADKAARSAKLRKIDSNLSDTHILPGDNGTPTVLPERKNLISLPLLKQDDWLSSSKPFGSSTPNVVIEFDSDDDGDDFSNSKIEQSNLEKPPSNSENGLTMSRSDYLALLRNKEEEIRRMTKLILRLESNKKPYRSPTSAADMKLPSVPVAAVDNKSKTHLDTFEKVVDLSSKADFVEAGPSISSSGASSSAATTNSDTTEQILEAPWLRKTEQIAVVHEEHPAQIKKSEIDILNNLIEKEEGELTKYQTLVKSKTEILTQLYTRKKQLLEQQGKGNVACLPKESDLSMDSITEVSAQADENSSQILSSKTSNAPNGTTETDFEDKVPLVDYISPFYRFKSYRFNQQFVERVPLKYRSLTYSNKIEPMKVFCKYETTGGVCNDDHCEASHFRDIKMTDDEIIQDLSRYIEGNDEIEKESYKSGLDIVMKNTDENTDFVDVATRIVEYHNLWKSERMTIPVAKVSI

Red1-TAP (S. pombe) = target: T2, Red1-TAP (S. pombe) (UniProt Q9UTR8); assay: co-IP; soluble extracts of S. pombe grown in minimal medium; Red1-TAP held on IgG Sepharose, 2 h at 4 °C, 150 mM NaCl, 0.2% NP-40; western blot
T2 sequence: T1 sequence

[1] = target: T3, Red1 L481R, I485R, full length, yeast two-hybrid fusion (S. pombe) (UniProt Q9UTR8); assay: two-hybrid; Gal4 system (pDEST32 bait, pDEST22 prey) in yeast MaV203; HIS3 reporter, growth without histidine with 5-50 mM 3AT, 30 °C
T3 sequence: T1 sequence with L481R, I485R

[2] = target: T4, Red1, full length, yeast two-hybrid fusion (S. pombe) (UniProt Q9UTR8); assay: as above
T4 sequence: T1 sequence

[3] = target: His-MBP-Red1 452-524 L481R, I485R (S. pombe) (UniProt Q9UTR8); assay: SEC; gel filtration of the Red1 452-524 L481R, I485R double mutant (Supplementary Fig. 12e, f); both purified
[4] = target: T5, Red1 E32R, full length, yeast two-hybrid fusion (S. pombe) (UniProt Q9UTR8); assay: two-hybrid; Gal4 system (pDEST32 bait, pDEST22 prey) in yeast MaV203; HIS3 reporter, growth without histidine with 5-50 mM 3AT, 30 °C
T5 sequence: T1 sequence with E32R

Red1-E32R-TAP (S. pombe) = target: T6, Red1-E32R-TAP (S. pombe) (UniProt Q9UTR8); assay: co-IP; soluble extracts of S. pombe grown in minimal medium; Red1-TAP held on IgG Sepharose, 2 h at 4 °C, 150 mM NaCl, 0.2% NP-40; western blot
T6 sequence: T1 sequence with E32R

[5] = target: Red1 390-712, yeast two-hybrid fusion (S. pombe) (UniProt Q9UTR8); assay: two-hybrid; Gal4 system (pDEST32 bait, pDEST22 prey) in yeast MaV203; HIS3 reporter, growth without histidine with 5-50 mM 3AT, 30 °C

B1: Red1-HA3 (protein, UniProt Q9UTR8 1-712)
chain: T1 sequence
binding (Red1-Myc13 (S. pombe)): binds | binding (Red1-TAP (S. pombe)): binds

B3: Red1, full length, yeast two-hybrid fusion (protein, UniProt Q9UTR8 1-712)
chain: T1 sequence
binding [2]: binds

B4: His-MBP-Red1 452-524 L481R, I485R (domain or fragment, UniProt Q9UTR8 452-524)
chain: EAPWLRKTEQIAVVHEEHPAQIKKSEIDIRNNLREKEEGELTKYQTLVKSKTEILTQLYTRKKQLLEQQGKGN
binding [3]: no binding

B5: Ars2, full length, yeast two-hybrid fusion (protein, UniProt O94326 1-609)
chain: MSEVHQESEVEYSRWKRERSPERSQRRSQSPPGEQSAYHRERSPLRKRGNYYDDRTRASGPYPTFTKPLIDPYTQTNAVSYERFIRWYSKENHISATTEDLYNSLHGTYNNYKQDLYARTARSFVESHCDEAWFEDSYWVDESQGRVLEVSENEKSYRRALYDKFMDRLDAGYYDDFQLPTAEDVIEKPSIPDNDTDDSILPSNDPQLSKWNQDSRNDAMENTLLVSHVLPNISVAQIHNALDGISFVQHFSLSTINLIKNDERSLWVHFKAGTNMDGAKEAVDGIQLDSNFTIESENPKIPTHTHPIPIFEIASSEQTCKNLLEKLIRFIDRASTKYSLPNDAAQRIEDRLKTHASMKDDDDKPTNFHDIRLSDLYAEYLRQVATFDFWTSKEYESLIALLQDSPAGYSRKKFNPSKEVGQEENIWLSDLENNFACLLEPENVDIKAKGALPVEDFINNELDSVIMKEDEQKYRCHVGTCAKLFLGPEFVRKHINKKHKDWLDHIKKVAICLYGYVLDPCRAMDPKVVSTSYVSLQILNKPYVGFRNINANYTFPTTSYSRRNDEEITSGASSQKSYSRQEPMIHRREFYRTYQDLDAPNQEVPELDY
binding [1]: binds | binding [4]: no binding | binding [2]: binds

B6: Ars2-GFP (protein, UniProt O94326 1-609)
chain: B5 chain
binding (Red1-TAP (S. pombe)): binds | binding (Red1-E32R-TAP (S. pombe)): no binding

B7: Red1 390-712, yeast two-hybrid fusion (domain or fragment, UniProt Q9UTR8 390-712)
chain: MKLPSVPVAAVDNKSKTHLDTFEKVVDLSSKADFVEAGPSISSSGASSSAATTNSDTTEQILEAPWLRKTEQIAVVHEEHPAQIKKSEIDILNNLIEKEEGELTKYQTLVKSKTEILTQLYTRKKQLLEQQGKGNVACLPKESDLSMDSITEVSAQADENSSQILSSKTSNAPNGTTETDFEDKVPLVDYISPFYRFKSYRFNQQFVERVPLKYRSLTYSNKIEPMKVFCKYETTGGVCNDDHCEASHFRDIKMTDDEIIQDLSRYIEGNDEIEKESYKSGLDIVMKNTDENTDFVDVATRIVEYHNLWKSERMTIPVAKVSI
binding [2]: binds | binding [5]: binds

The next lines start with the values.

binding [1]: no binding
B2: Red1 L481R, I485R, full length, yeast two-hybrid fusion (protein, UniProt Q9UTR8 1-712)
chain: T1 sequence with L481R, I485R

binding (Red1-Myc13 (S. pombe)): binds | binding (Red1-TAP (S. pombe)): binds
B8: Red1-∆CC-HA3 (protein, UniProt Q9UTR8)
chain: MSRSINLDELRKKALESKKKNEEDESNDSDKEDGEISEDDPVIDQSNSVPPMKVPTFPEQIPQLPPFDRFPGTNANFFPFGAPFMLPPALMFGPNTVPFFPQTASSNKTFSKRKRSSENSFNNRNKAKSSETSDSSNTSQSFKENRALKDTATSRPLALSSDTSYQKSEKAKSEKSPFLSTSKNSDANYSKTTNQKEAEKAVSQLFEVGVRFNDFIAEGIEPSVVHTLFLKLGLDSSSASSQGSLTLSADKAARSAKLRKIDSNLSDTHILPGDNGTPTVLPERKNLISLPLLKQDDWLSSSKPFGSSTPNVVIEFDSDDDGDDFSNSKIEQSNLEKPPSNSENGLTMSRSDYLALLRNKEEEIRRMTKLILRLESNKKPYRSPTSAADMKLPSVPVAAVDNKSKTHLDTFEKVVDLSSKADFVEAGPSISSSGASSSAATTNSDTTEQILVACLPKESDLSMDSITEVSAQADENSSQILSSKTSNAPNGTTETDFEDKVPLVDYISPFYRFKSYRFNQQFVERVPLKYRSLTYSNKIEPMKVFCKYETTGGVCNDDHCEASHFRDIKMTDDEIIQDLSRYIEGNDEIEKESYKSGLDIVMKNTDENTDFVDVATRIVEYHNLWKSERMTIPVAKVSI

From PMC9402713, “Structural analysis of Red1 as a conserved scaffold of the RNA-targeting MTREC/PAXT complex” (Nature Communications, 2022)
